Read counts are not given, so values of variants with three or more changes are uncertain.

First the molecules themselves.
B1: LINE1-mini (parent)
chain: GGCAGAGCUCAACACAGCGUGGCAAAGUGGCUGUGGCUAGACUGCC

Variants of B1 are the subject of this data set. Description: self-cleavage, relative activity (ratio to wild type); higher = more cleavage; in vitro, sequencing; the parent is a self-cleaving ribozyme.
Take GGCAGAGGUGAACACAGCGUAGGAUAGUGGAGGUGGCUAGACUGCC: the self-cleavage was 0.02.
For the variant GGCAGAGGUCAACACAGAGUCGCAAAGUGGCUGUGGCUAGACUUCC, the self-cleavage is 0.03.
The same measure for GGCAGAGGUCAACACAGCGUCGCAAAUUGGCUGUGGCCAGACUGCC: 0.06.
For the variant GGCAGAGGUCAACACAGCGUGGCAAAGUGGCUGUGGAUCGACUGGC, the self-cleavage was 0.01.
For GGCAGAGGUCAACACAGCGUGGCAAAAUGGCUGUGGUAAGACUGCC, the self-cleavage was determined as 0.05.
The same measure for GGCAGAGGUCAAAACAGCGUGGCAAAGUGGCUGCGGCUAGACUGCC: 0.16; for GGCAGAGGUCAAUACAGCGUGGCAACGUGGCUGUGUCUAGACUGCC: 0.1.
Take GGCAGAGGUCAACACACCGUGGCAAAGUCGCUGUGGCUAGACUGCC: the self-cleavage was determined as 0.36.
For GGCAGAGGUCAACAAAUCGUCGCAAAGUGGCUGUGGCUAUACUGCC the value was 0.02; for GGCAGAGGUCAAAACAGGGUGGCAAAGUGGCUGUGGCUAGACUGCC, 0.14.
The same measure for GGCAGAGGUCAACACAGCGUGACAAAGUGGCUGUGUCUAGGCUGCC: 0.07; for GGCAGAGGUCAAGACAGCAGGGCAAAGUGGCUGUGGCUAGACGGCC: 0.04.
Turning to GGCAGAGGUCAACACAGCGUGGCAAAGUGGCUGUGGAUAGACCGUC, the self-cleavage came out at 0.01.
The same measure for GGCAGAGGUCAACACAGCGUGGCAAGGUGGCUGUGGCUAGUCUGCC: 0.24; for GGCAGAGGUCAACACAGCGUGGCGAAAUGGCUGUGACUAUACUGCC: 0.06.
The same measure for GGCAGAGGUUAACAUAACGUGGCAACGUGGCUGUGGCUAGACUGCC: 0.02; for GGCAGAGGUCAACACCGCGUGGCAAAGUGGCUGUGUUUAGACUGCC: 0; for GGCAGAGGUCAACACAGCGUGGGAAAGUAGCUGUGGCUAGACUCCC: 0.06.
The same measure for GGCAGAGGUCAACACAGCGUGCCGAAGUGGCUGUGGCUAGACUGCC: 0.04; for GGCAGAGGUCAACACAGCGUGGCAAAGUCGCUGUGGCUAGACAGCC: 0.03.
Take GGCAGAGGUCAACACUGCGAGGCAAAGUGGCUAUGGCUAGACUGCC: the self-cleavage is 0.04.
For GGCAGAGGUCAACACAGCGUGGCAAACUGACUGUUGCUAGACUGCC the value was 0.03; for GGCAGAGGUCAACACAGCCUGGCAAAGUGGCUGUGGCUAGACCGCC, 0.03.
For the variant GGCAGAGGUCAAAAAAGCGUGGCAAAGUGUCUGUGUCUAGACCGCC, the self-cleavage was 0.15.
For GGCAGAGGUCAACACAGCGUGGCAAAGUGGCUCUGGAUACACUGCC the value was 0.04; for GGCAGAGGUCAACACAGCGUGGCAAAGUGGCUGUCGCUAGACUACC, 0.02.
The same measure for GGCAGAGGUCAACACAGCGUGGCAAACUUGCUGUGGCUAGACUACC: 0.02; for GGCAGAGGUCAACACAGCGUGGCAACGUGGCUGUGGCUAGACUGUC: 0.06.
For GGCAGAGGUCAACACAGCGUUGAAAAGUGGCUGUGGCUGGACUGCC the value was 0.02; for GGCAGAGGACAACACAGCGUGGCAAAGUGGCUUUGGCUAGACUGCC, 0.09.
GGCAGAGGUCAACAUAUCGUGGCAAAGUGGCUGUGGCUAGACUGCC: the self-cleavage is 0.02.
For GGCAGAGGUCAACACAGCGUGUCAAAGUGGCUGCGGCUAGACUGCC the value was 0.62; for GGCAGAGGUCAACACAGCAUGGCAAAGUGGCUGUGGCUAUACUGCC, 0.13; for GGCAGAGGUCAACACAGCGUGACAAAGUGGAUGUGGCUAGACUGUC, 0.
The same measure for GGCAGAGGACAACACAGCAUGGCAAAGUGGCUGUGGCUAGACUGCC: 0.06; for GGCAGAGGUCAACAGAGCGUGGCAAAAUGACUGUGGCUAGACUGCC: 0.05; for GGCAGAGGUCAACACUGCGUGGCAAAGUGGCUGUGGCUAGACUCCC: 0.03.
For GGCAGAGGUCAACACAGGGUGGCAAAAUUGCUGUGGCGAGAUUGCC the value was 0.01.
On to GGCAGAGGUCAACACAGCUUGGCAAAGUUGCUGUGGCUAGACUGCC, for which the self-cleavage was 0.03.
Consider GGCAGAGGUCAACACGGCGUGGCAAAGUGGCUGUGGCUAGACUGAC, for which the self-cleavage amounted to 0.
The same measure for GGCAGAGGUAAAGACAGGGUGGCAAAGUGGCUGUGGCUAGACUGCC: 0.02.
Consider GGCAGAGGUUCAAACAGCGUGGCAAAGUGGCUGUGGCUAGACUGCC, for which the self-cleavage came out at 0.04.
Take GGCAGAGGUCAACACAGCGUGACAAAGUGGGUGUAGCUAGACUGGC: the self-cleavage came to 0.04.
The same measure for GGCAGAGGUCAACACAGCGUGGAAAAGUGGCUGUCGCUAGACUGCC: 0.07; for GGCAGAGGUCAACACAGCGUGACAAUGUGGCUAUGGCUAGACUGCC: 0.03; for GGCAGAGGUCAACACAGCGUGGCAAAGUGGGUGGGGCCAGACUGCC: 0.02.
As to GGCAGAGGUCAACAAAGCGUGGCAAAGUGACUGUUGCUAGACUGCC, the self-cleavage amounted to 0.04.
For GGCAGAGGUCAACAAAGCGUGGCAAACUGGCUGUGGCUAUACUGCC the value was 0.02.
For GGCAGAGGUCAACACAGUGUGGCCAAGUGGCUGUGGAUAUACUGCC the value was 0.04; for GGCAGAGGUCAACACAGCGUGGCAAGGUGGGUGUGGCUAGACUGCC, 0.04.
In the case of GGCAGAGGUCAACACAGCGUGGUUAAGUGGCUGUGGGUAGACUGCC, the self-cleavage was determined as 0.06.
For GGCAGAGGUCAACACAGUGUGGCAAAGUGGAUUUGGCUAGACUGCC the value was 0.01; for GGCAGAGGUCAACACAGCUUCGCAAAGUGGCUGUGGCUACACUGCC, 0.01; for GGCAGAGGUCAACACAGCUUCGCAAAGUGGCUGUGGCUAGACUGCC, 0.08.
The same measure for GGCAGAGGUCAACACAGCGUGGCUAAGUGGCUGUGGCCAGACUGCC: 0.04; for GGCAGAGGUCAACACAGCGUGGCAAAAUGGUUGUGGCUAGACUGCC: 0.09.

These data come from the RNAGym collection of RNA variant scans (doi:10.7554/elife.90254).
